Reference: the supplement of paper PMC8728848
This is one part of the list.

How the values were obtained:
Assay in all cases: glycan array binding signal (z-score within array); higher = stronger binding
Settings in all cases: glycan notation: IUPAC condensed, linker removed
[1] = biological target: Gal(b1-3)GlcNAc
How it was run: (§1)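 Negative Z-scores can be read as non-binding. The Z-score is calculated within each array and then averaged across arrays of one protein sequence at different concentrations or buffers and across linkers. Arrays, 3228 in all, were curated from the Consortium for Functional Glycomics database and kept only where the protein sequence was available.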

[2] = biological target: Gal(b1-3)GlcNAc(b1-3)Gal(b1-4)Glc
How it was run: as §1

[3] = biological target: Gal(b1-3)GlcNAc(b1-3)Gal(b1-4)GlcNAc(b1-3)Gal(b1-4)Glc
How it was run: as §1

[4] = biological target: Gal(b1-3)GlcNAc(b1-3)Gal(b1-4)GlcNAc(b1-6)[Gal(b1-3)GlcNAc(b1-3)]Gal(b1-4)Glc
How it was run: as §1

[5] = biological target: Gal(b1-3)GlcNAc(b1-3)Gal(b1-4)[Fuc(a1-3)]GlcNAc(b1-3)Gal(b1-4)Glc
How it was run: as §1

[6] = biological target: Gal(b1-3)GlcNAc(b1-3)Gal(b1-4)[Fuc(a1-3)]GlcNAc(b1-6)[Gal(b1-3)GlcNAc(b1-3)]Gal(b1-4)Glc
How it was run: as §1

[7] = biological target: Gal(b1-3)GlcNAc(b1-3)[Fuc(a1-3)[Gal(b1-4)]GlcNAc(b1-6)]Gal(b1-4)Glc
How it was run: as §1

[8] = biological target: Gal(b1-3)GlcNAc(b1-3)[Fuc(a1-3)[Gal(b1-4)]GlcNAc(b1-6)]Gal(b1-4)]GlcNAc(b1-6)[Gal(b1-4)]GlcNAc(b1-3)]Gal(b1-4)Glc
How it was run: as §1

[9] = biological target: Gal(b1-3)GlcNAc(b1-3)[Gal(b1-4)GlcNAc(b1-6)]Gal(b1-4)Glc
How it was run: as §1

[10] = biological target: Gal(b1-3)GlcNAc(b1-3)[Gal(b1-4)GlcNAc(b1-6)]Gal(b1-4)GlcNAc(b1-6)[Gal(b1-3)GlcNAc(b1-3)]Gal(b1-4)Glc
How it was run: as §1

[11] = biological target: Gal(b1-3)[Fuc(a1-4)]GlcNAc
How it was run: as §1

[12] = biological target: Gal(b1-3)[Fuc(a1-4)]GlcNAc(b1-3)Gal(b1-4)Glc
How it was run: as §1

[13] = biological target: Gal(b1-3)[Fuc(a1-4)]GlcNAc(b1-3)Gal(b1-4)[Fuc(a1-3)]Glc
How it was run: as §1

[14] = biological target: Gal(b1-3)[Fuc(a1-4)]GlcNAc(b1-3)Gal(b1-4)[Fuc(a1-3)]GlcNAc(b1-3)Gal(b1-4)Glc
How it was run: as §1

[15] = biological target: Gal(b1-3)[Fuc(a1-4)]GlcNAc(b1-3)Gal(b1-4)[Fuc(a1-3)]GlcNAc(b1-6)[Gal(b1-3)[Fuc(a1-4)]GlcNAc(b1-3)]Gal(b1-4)Glc
How it was run: as §1

[16] = biological target: Gal(b1-3)[Fuc(a1-4)]GlcNAc(b1-3)[Fuc(a1-3)[Gal(b1-4)]GlcNAc(b1-6)]Gal(b1-4)Glc
How it was run: as §1

[17] = biological target: Gal(b1-3)[Neu5Ac(a2-6)]GlcNAc(b1-3)Gal(b1-4)Glc
How it was run: as §1

[18] = biological target: Gal(b1-4)Glc
How it was run: as §1

[19] = biological target: Gal(b1-4)GlcNAc
How it was run: as §1

[20] = biological target: Gal(b1-4)GlcNAc(b1-2)Man(a1-3)[Gal(b1-4)GlcNAc(b1-2)Man(a1-6)]Man(b1-4)GlcNAc(b1-4)GlcNAc
How it was run: as §1

[21] = biological target: Gal(b1-4)GlcNAc(b1-2)Man(a1-3)[Gal(b1-4)GlcNAc(b1-2)Man(a1-6)]Man(b1-4)GlcNAc(b1-4)[Fuc(a1-6)]GlcNAc
How it was run: as §1

[22] = biological target: Gal(b1-4)GlcNAc(b1-2)Man(a1-3)[Gal(b1-4)GlcNAc(b1-2)Man(a1-6)][GlcNAc(b1-4)]Man(b1-4)GlcNAc(b1-4)[Fuc(a1-6)]GlcNAc
How it was run: as §1

[23] = biological target: Gal(b1-4)GlcNAc(b1-2)Man(a1-3)[Man(a1-6)]Man(b1-4)GlcNAc(b1-4)GlcNAc
How it was run: as §1

[24] = biological target: Gal(b1-4)GlcNAc(b1-2)Man(a1-6)[GlcNAc(b1-2)Man(a1-3)]Man(b1-4)GlcNAc(b1-4)[Fuc(a1-6)]GlcNAc
How it was run: as §1

[25] = biological target: Gal(b1-4)GlcNAc(b1-2)Man(a1-6)[Man(a1-3)]Man(b1-4)GlcNAc(b1-4)GlcNAc
How it was run: as §1

[26] = biological target: Gal(b1-4)GlcNAc(b1-2)Man(a1-6)[Man(a1-3)]Man(b1-4)GlcNAc(b1-4)[Fuc(a1-6)]GlcNAc
How it was run: as §1

[27] = biological target: Gal(b1-4)GlcNAc(b1-2)[Gal(b1-4)GlcNAc(b1-4)]Man(a1-3)[Fuc(a1-3)[Gal(b1-4)]GlcNAc(b1-2)Man(a1-6)]Man(b1-4)GlcNAc(b1-4)GlcNAc
How it was run: as §1

[28] = biological target: Gal(b1-4)GlcNAc(b1-2)[Gal(b1-4)GlcNAc(b1-4)]Man(a1-3)[Gal(b1-4)GlcNAc(b1-2)Man(a1-6)]Man(b1-4)GlcNAc(b1-4)GlcNAc
How it was run: as §1

[29] = biological target: Gal(b1-4)GlcNAc(b1-2)[Gal(b1-4)GlcNAc(b1-4)]Man(a1-3)[Gal(b1-4)GlcNAc(b1-2)[Gal(b1-4)GlcNAc(b1-6)]Man(a1-6)]Man(b1-4)GlcNAc(b1-4)GlcNAc
How it was run: as §1

[30] = biological target: Gal(b1-4)GlcNAc(b1-3)Fuc
How it was run: as §1

[31] = biological target: Gal(b1-4)GlcNAc(b1-3)Gal(b1-4)Glc
How it was run: as §1

[32] = biological target: Gal(b1-4)GlcNAc(b1-3)Gal(b1-4)GlcNAc(b1-3)Gal(b1-4)Glc
How it was run: as §1

[33] = biological target: Gal(b1-4)GlcNAc(b1-3)[Fuc(a1-3)[Gal(b1-4)]GlcNAc(b1-6)]Gal(b1-4)Glc
How it was run: as §1

[34] = biological target: Gal(b1-4)GlcNAc(b1-3)[Gal(b1-4)GlcNAc(b1-6)]Gal(b1-4)Glc
How it was run: as §1

[35] = biological target: Gal(b1-4)GlcNAc(b1-3)[Gal(b1-4)GlcNAc(b1-6)]Gal(b1-4)GlcNAc(b1-3)Gal(b1-4)Glc
How it was run: as §1

[36] = biological target: Gal(b1-4)GlcNAc(b1-3)[Gal(b1-4)GlcNAc(b1-6)]Gal(b1-4)GlcNAc(b1-3)[Gal(b1-4)GlcNAc(b1-6)]Gal(b1-4)GlcNAc(b1-3)Gal(b1-4)Glc
How it was run: as §1

[37] = biological target: Gal(b1-4)GlcNAc(b1-3)[Gal(b1-4)GlcNAc(b1-6)]Gal(b1-4)GlcNAc(b1-3)[Gal(b1-4)GlcNAc(b1-6)]Gal(b1-4)GlcNAc(b1-3)[Gal(b1-4)GlcNAc(b1-6)]Gal(b1-4)GlcNAc(b1-3)Gal(b1-4)Glc
How it was run: as §1

[38] = biological target: Gal(b1-4)GlcNAc(b1-3)[Gal(b1-4)GlcNAc(b1-6)]Gal(b1-4)GlcNAc(b1-3)[Gal(b1-4)GlcNAc(b1-6)]Gal(b1-4)GlcNAc(b1-3)[Gal(b1-4)GlcNAc(b1-6)]Gal(b1-4)GlcNAc(b1-3)[Gal(b1-4)GlcNAc(b1-6)]Gal(b1-4)GlcNAc(b1-3)Gal(b1-4)Glc
How it was run: as §1

[39] = biological target: Gal(b1-6)GalNAc
How it was run: as §1

[40] = biological target: Gal3S(b1-3)GalNAc(b1-4)Gal3S(b1-4)Glc
How it was run: as §1

[41] = biological target: Gal3S(b1-3)[Fuc(a1-4)]GlcNAc
How it was run: as §1

[42] = biological target: Gal3S(b1-3)[Fuc(a1-4)]GlcNAc(b1-3)Gal(b1-4)Glc
How it was run: as §1

[43] = biological target: Gal3S(b1-4)Glc
How it was run: as §1

[44] = biological target: Gal3S(b1-4)GlcNAc
How it was run: as §1

[45] = biological target: Gal3S(b1-4)GlcNAc(b1-3)Gal
How it was run: as §1

B1: CLECSF8 (Mus musculus), Q9Z2H6 (protein)
chain: HYFLRWTRGSVVKLSDYHTRVTCIREEPQPGATGGTWTCCPVSWRAFQSNCYFPLNDNQTWHESERNCSGMSSHLVTINTEAEQNFVTQLLDKRFSYFLGLADENVEGQWQWVDKTPFNPHTVFWEKGESNDFMEEDCVVLVHVHEKWVWNDFPCHFEVRRICKLPGITFNWKPSK
**Q.** Which results are given for B1?
**A.** glycan array binding signal (z-score) [1]: -0.321; glycan array binding signal (z-score) [2]: -0.424; glycan array binding signal (z-score) [3]: -0.424; glycan array binding signal (z-score) [4]: -0.424; glycan array binding signal (z-score) [5]: -0.424; glycan array binding signal (z-score) [6]: -0.424; glycan array binding signal (z-score) [7]: -0.424; glycan array binding signal (z-score) [8]: -0.424; glycan array binding signal (z-score) [9]: 0.317; glycan array binding signal (z-score) [10]: 0.313; glycan array binding signal (z-score) [11]: -0.424; glycan array binding signal (z-score) [12]: -0.424; glycan array binding signal (z-score) [13]: -0.424; glycan array binding signal (z-score) [14]: -0.352; glycan array binding signal (z-score) [15]: -0.424; glycan array binding signal (z-score) [16]: -0.424; glycan array binding signal (z-score) [17]: -0.424; glycan array binding signal (z-score) [18]: -0.424; glycan array binding signal (z-score) [19]: -0.424; glycan array binding signal (z-score) [20]: -0.424; glycan array binding signal (z-score) [21]: -0.424; glycan array binding signal (z-score) [22]: -0.424; glycan array binding signal (z-score) [23]: -0.424; glycan array binding signal (z-score) [24]: -0.424; glycan array binding signal (z-score) [25]: -0.424; glycan array binding signal (z-score) [26]: -0.424; glycan array binding signal (z-score) [27]: -0.424; glycan array binding signal (z-score) [28]: -0.424; glycan array binding signal (z-score) [29]: -0.424; glycan array binding signal (z-score) [30]: -0.424; glycan array binding signal (z-score) [31]: -0.424; glycan array binding signal (z-score) [32]: -0.424; glycan array binding signal (z-score) [33]: -0.424; glycan array binding signal (z-score) [34]: -0.424; glycan array binding signal (z-score) [35]: -0.424; glycan array binding signal (z-score) [36]: -0.424; glycan array binding signal (z-score) [37]: -0.163; glycan array binding signal (z-score) [38]: -0.424; glycan array binding signal (z-score) [39]: -0.424; glycan array binding signal (z-score) [40]: -0.424; glycan array binding signal (z-score) [41]: -0.424; glycan array binding signal (z-score) [42]: -0.424; glycan array binding signal (z-score) [43]: -0.424; glycan array binding signal (z-score) [44]: 0.465; glycan array binding signal (z-score) [45]: -0.424
